The source of these data is EP4537852A1, “HER2-GST-SN-38 COMPLEX, AND PHARMACEUTICAL COMPOSITION COMPRISING SAME FOR PREVENTING OR TREATING PROLIFERATIVE DISEASES” (priority 2022, dated 2023).

One series concerns MKN45 tumor. Description: In vivo anticancer efficacy in xenograft mouse model. The conditions noted are these: for tumor growth inhibition % (TGI %): compared to PBS-administered control group. On the procedure: To confirm the anticancer effect of the KMD111 against target tumor cells, tests were performed in an in vivo environment using a mouse animal model transplanted with a human gastric cancer cell line MKN45.
(§1) Specifically, for the anticancer efficacy test, 6-week-old NIG mice (NOD/SCID, GH Bio Co., Ltd.) were purchased and bred in an environment of free access to feed and water, acclimated for more than 10 days, and then transplanted with tumor cells. As the tumor cells, HER2-positive gastric cancer MKN45 cells were subcutaneously administered at a dose of 5×10^6 cells/100 µL onto a fixed site on the left flank. After 1 week, a tumor was measured until the start of test substance administration, and individuals having tumors reached a size of about 150 mm^3 were selected and randomly distributed to each test group. Then, administration began.
(§2) The test group was divided into a PBS-administered control group and KMD111-administered groups at 3 mg/kg, 6 mg/kg, and 12 mg/kg based on SN-38, having three mice per group. Intravenous injection (IV) was performed once every three days for 21 days, a total of eight times. Then, the tumor size and body weight were measured from Day 11 after the cancer cell transplantation (Day 0) to the end date (for 32 days). The tumor size, relative tumor volume (RTV), and tumor growth inhibition % (TGI %) were calculated according to the following equations, by measuring a long axis length and a short axis length of the tumor. Tumor size((mm))^3 = (length×width^2)/2, (L:longaxis,W:shortaxis) [formula] RTV = (tumorsizeonfinalday)/(tumorsizeoninitialday) [formula] [formula]

A short description of series [1]: Body weight and clinical symptoms in xenograft mouse model. The conditions noted are these: 3, 6, 12 mg/kg based on SN-38, IV once every three days for 21 days. It is filed as in vivo. The method, then:
as §1
as §2, with “[formula] […]” for “[formula] [formula]”

Another series deals with NCI-N87. The series can be described thus: Cytotoxicity on target cells (CCK-8 cell viability). It is filed as cell-based, human. To be noted: gastric cancer cell line; 72 hours; 3.1 to 200 ng/mL on the basis of SN-38; FIG. 3. The method, then:
(§3) Cells used in the experiment were human breast cancer cell lines SKBR3 and MDA-MB231 and human gastric cancer cell lines NCI-N87 and MKN4 purchased from the Korean Cell Line Bank. An RPMI-1640 medium (Thermo fisher scientific, USA) supplemented with 10 % fetal bovine serum (FBS, Hyclone, Logan, UT, USA) and 1 % stereptomycin-peniciline (Invitrogen, Carlsbad, CA, USA) was used and cultured in a 5 % CO2 incubator at 37 °C. Cells used in each experiment were subcultured when the cells reached a confluency of about 80 % to 90 %.
(§4) Specifically, MDA-MB231 cells of a HER2-negative human breast cancer cell line as a normal control group, SK-BR3 cells of a breast cancer cell line that overexpresses a receptor recognized by HER2 Afb, and gastric cancer cell lines NCI-N87 and MKN-45 were seeded in a 96-well plate at a density of 1×10^4 cells/well, cultured for 24 hours, treated with KMD111 at different concentrations, and then, cultured for 72 hours. On the basis of the concentration of SN-38, the cells were treated at concentrations of 3.1, 6.2, 12.5, 25, 50, 100, and 200 ng/mL, respectively. After treated 96 wells with 10 µL of cck-8 (Dojindo, Japan) on the cultured plate, the cells were cultured for 1 hour. Here, a highly water-soluble tetrazolium salt, WST-8, is reduced by the dehydrogenase activity of the cells, and produces yellow formazan dyes that dissolve in a tissue culture medium. In this regard, the measured absorbance value is proportional to the number of viable cells. The absorbance at 450 nm was measured by using a microplate reader (Multiskan SkyHigh Microplate Spectrophotometer, Thermo fisher scientific, USA) to indicate cell viability compared to the control group, and the results are shown in FIG. 3.

The next series deals with MDA-MB231 cells. The description is as above. To be noted: HER2-negative breast cancer cell line; 72 hours; 3.1 to 200 ng/mL on the basis of SN-38; FIG. 3. It is filed as cell-based, human. On the procedure:
as §3, §4

The test system of another series is SKBR3 cells. Described as above. It is filed as cell-based, human. The conditions noted are these: HER2-positive breast cancer cell line; 72 hours; 3.1 to 200 ng/mL on the basis of SN-38; FIG. 3. The method, then:
as §3, §4

B1: KMD111 (conjugate)
chain: MAEKPKLHYFNARGRMESTRWLLAAAGVEFEEKFIKSAEDLDKLRNDGYLMFQQVPMVEIDGMKLVQTRAILNYIASKYNLYGKDIKERALIDMYIEGIADLGEMILLLPVCPPEEKDAKLALIKEKIKNRYFPAFEKVLKSHGQDYLVGNKLSRADIHLVELLYYVEELDSSLISSFPLLKALKTRISNLPTVKKFLQPGSPRKPPMDEKSLEEARKIFRFSGGGSGGGSGGGSGGGSGGGSGGGVDNKFNKEMRNAYWEIALLPNLNNQQKRAFIRSLYDDPSQSANLLAEAKKLNDAQAPK
On to B1, for which the “tumor growth inhibition % (TGI %)” value with MKN45 tumor (3 mg/kg based on SN-38, IV once every three days for 21 days) worked out at 79.5%; with MKN45 tumor (6 mg/kg based on SN-38, IV once every three days for 21 days), 83.5%; in the series with MKN45 tumor (12 mg/kg based on SN-38, IV once every three days for 21 days) it was 92.5%. Further, in the series with MKN45 tumor (3, 6, 12 mg/kg based on SN-38, IV, compared to the PBS-administered group, FIG. 5), the tumor size result is given as “significant reduction in tumor size in a concentration-dependent manner”. Besides, the clinical symptoms entry in series [1] is “no special clinical symptoms were observed”. The body weight result in series [1] (FIG. 4) was “weight loss was observed”. Moreover, the apoptosis efficacy in the series with NCI-N87 is reported as at least 70%; in the series on SKBR3 cells, at least 80%. In addition, the cytotoxicity entry with MDA-MB231 cells was “less than 30%”.
